Variants at the floor of the assay are shown more often than the library holds them.
B1: TPR 5TU (parent)
chain: GGAUCUUCUCGAUCUAACAAAAAAGACAAAUCUGCCACAAAGCUUGAGAGCAUCUUCGGAUGCAGAGGCGGCAGCCUUCGGUGGCGCGAUAGCGCCAACGUUCUCAACUAUGACACGCAAAACGCGUGCUCCGUUGAAUGGAGUUUAUCAUG

Variants of: B1
Test: polymerase ribozyme fitness, log enrichment relative to wild type (log ratio); higher = more active; in vitro selection for triplet polymerase activity
Summary of the method: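 For each subunit of a heterodimeric triplet polymerase ribozyme, a mutant library was built by PCR and transcribed, then taken through a single in vitro selection round in triplicate. Selection involved annealing to a biotinylated primer, the partner subunit and triplets, incubation frozen at −7 °C, gel excision of extended constructs, capture on streptavidin beads and RT-PCR. Genotypes were retained after Illumina sequencing of inputs and outputs only with ≥10 input reads and ≥1 read in each output. Fitness is defined as the logarithm of a genotype's enrichment relative to wild-type enrichment, using inverse-variance-weighted averages across replicates, with the logarithm taken to base 2.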

Variant	polymerase ribozyme fitness (log ratio)
GGAUCUUCUCGAUGUAACGAAAAAGACAAAUCUGCCACAAAGCCUGAGAGCGUCUUCGGAUGCAGAGGCGGCAGCCUUCGGUCGCGCGAUAGCGCCAACGUUCUCAACUAUGACACGCAAAACACGUGCUCCGUUGAAUGGAGUUUAUCAUG [C14G A19G U44C A52G G83C G124A]	≤ -4.2
GGAUCUUCUCGAUGUAACAAAAUAGACAAAUCUGCCACAAAGCUUGAGAGCAUCUUAGGAUGCAGAGGCGGCAGCCUUCGGUGGUGCGAUAGCGUCAACGUUCUCAACUAUGACAAGCAAAACGCGUGCUCCGUUGAAUGGAGUUUAUCAUG [C14G A23U C57A C85U C95U C116A]	≤ -4.2
GGAUCUUCUCGAUGUAACAAAAACGUCAAAUCUGCAACAAAGCUUGAGAGCAUCUUCGGAUGCAGAGGCGGCGGCCUUCGGUGGCGCGAUAGCGCCAACGUUCUCAUCUAUGACACGCUAAACGCGUGCUCCGUUGAAUGGAGAUUAUCAUG [C14G A24C A26U C36A A73G A107U A119U U144A]	≤ -4.2
GGAUCUUCUCGAUGUAACACAAAAGACAAAUCUGCCACAAAGCUUGAGAUCAACUUCGGAUGCAGAGGCGGCAGCCUUCGGUGGCGCGAUAGCGCCAACGUUCUCAACUAUGACACGCAAAACGCUUGCUCCGUUGAAAGGAGUUUAUCAUG [C14G A20C G50U U53A G126U U139A]	≤ -4.2
GGAUCUUCUCGAUGUAACAAACAAGACAAAUCUGCCACAAAGCUUGAGAGCAUCUUCGGAUGCAGAGGCGGCUGCCUUCGGUGGCGCGAUAGCGCCAACGUUCUCAACUAUGACACGCAAAACGCGUGCUCCGUUGAAUGGAGUUUAUCAUG [C14G A22C A73U]	-3.92
GGAUCUUCUCGAUGUAACAAAAAUGACAAAUCUGCCACAAAGCUUGAGAGAAUUUUCGGAUGCAGAGGCGGCAGCGUUCGGUGGCGCGAUAGCGCCAACGUUCUCAACUAUGACACGCGAAAUGCGUGCUCCGUUGAAUGGAGUUCAUCAUG [C14G A24U C51A C54U C76G A119G C123U U146C]	≤ -4.2
GGAUCUUCUCGAUGUAACAAAAGAGACAAAUCUGCCAAAAAGCUUGAGAGCGUCUUCGGAUGCAGAGGCGGCAGCCUUCGGUGGCGCGAUAGCUCCAACGUUCUCAACUAUGACACGCAAAACGCGUGCUCCGUUGAAUGGAGUUUAUCAUG [C14G A23G C38A A52G G94U]	≤ -4.2
GGAUCUUCUCGAUGUAACAAAACAGACAAAUCUGCCACAAAGCUUGAGAGCAUCUUCGGAUGCAGAGGCGGCAGCCCUCGGUGGCGCGAUAGCGCCAACGUUCUCCACUAUGACACGCAAAACGCGUGCUCCGUUGAAUGGAGUUUAUCAUG [C14G A23C U77C A106C]	≤ -4.2
GGAUCUUCUCGAUGUAACAAAAAUGACAAAUCUGCCACAAAGCUUGAGAGCAUCUUCGGAUGCAGAGGCGGCAGCCUACGGUGGCUCGAUAGCGCCAACGUUCUCAACUAUGACACGCAAAACGCGUGCUCCGUUGAAUGGAGUGUAUCAUG [C14G A24U U78A G86U U145G]	≤ -4.2
GGAUCUUCUCGAUGUAACAUAAAUGACAAAUCGGCCACAAAGCUUGAGAGCAUCUAGGGAUGCAGAGGCGGCAGCCUUUGGUGGCGCGAUAGCGCCAACGUUCUCAACUAUGACACGGAAAACGCGUGCUCCGUUGAUUGGAGUUUAUCAUG [C14G A20U A24U U33G U56A C57G C79U C118G A138U]	≤ -4.2
GGAUCUUCUCGAUGUAACAUAAAAGACAAAUCCGCCACAAAGCUUGAGAGCAUCUACGGAUGCAGAGGCGGCAGCCUUCGGUGGCGCGAUAACGCCAACGUUCUCAACGAUGACACGCAAAACGCGUGCUCCGUUGAGUGGAGUUUAUCAUG [C14G A20U U33C U56A G92A U109G A138G]	≤ -4.2
GGAUCUUCUCGAUGUAACAUGAAAGACAAAUCUGCUACAAAGCUUGAGAGCAGCUUCUGAUGCAGAGGCGGCAGCCUUCGGUGGUGCGAUAGCGCCAACGUUCUCAACUAUGACACGCAAAACGCGUGCUCCGUUAAAUGGAGUUAAUCAUG [C14G A20U A21G C36U U53G G58U C85U G136A U146A]	≤ -4.2
GGAUCUUCUCGAUGUAACAAAAAUGACAAUUCUGCCACAAAGCAUGAGAGCAUAUUCGGAUGCAGAGGCGGCAGCCUUCGGUGGCGUGAUAGCGCCAACGUUCUCAACUAUUACACGCAAAACGCGUGCUCCGUUGAAUGGAGUUUAUCAUG [C14G A24U A30U U44A C54A C87U G112U]	-4.11
GGAUCUUCUCGAUGUAACAAAUAAGACAAAUCUGCCAUAAAGCUUGAGAGCAUCUUCGGAUGCAGAGGCGGCAGCCUUCGGUGGCGCGAUAGCGCCAACGUUCUCAACUAUGACACGCAAAACGCGUGCUCCGUUCAAUGGAGUUUCUCAUG [C14G A22U C38U G136C A147C]	≤ -4.2
GGAUCUUCUCGAUGUAACAAAGAAAACCAAUCUGCCACAAAGCUUGAGACCAUCUUCGGAUGCAGAGGCGGCAGCCUUCGGUGUCGCGAUAGCGCCAACGUUCGCAACUAUGACACGCAAAACGCGUGCUCCGUUGAAUGGAGUUUAUCAUG [C14G A22G G25A A28C G50C G84U U104G]	≤ -4.2
GGAUCUUCUCGAUGUAACAAAACAGACAAAUCUGCCACAAAGCUUGAGAGCAUCUUCGGAUGCAGAGGCGGCAGCCUUCGGUGGCGAGAUAGCGCCAACGUUCUCAACUGUGACUCGCAAAAUGCGUGCUCCGUUGAAUGGAGUUUAUCAUG [C14G A23C C87A A110G A115U C123U]	≤ -4.2
GGAUCUUCUCGAUGUAACAAACAAGACAAAUCUGCCACAAAGCUUAAGAGCAUCUUCGGAUGCAGACCCGGCAGCCUUCGUUGGCGCGAUAGCGCGCACGUUCUCAACUAUGACACGCAAAACGCGUGCUCCGUUGAAUGGAGUUUAUCAUG [C14G A22C G46A G67C G68C G81U C96G A97C]	≤ -4.2
GGAUCUUCUCGAUGUAACAUAUAAGACAAAUCUGCCACAACGUUUGAGAGCAUAUUCGGAUGCAGAGGCGGCAGCCUUGGGGGGCGCGAUAUCGCCAACGUUCUCAACUUUGACACGCAAAACGUGUGCUCCGUUGAAUGGAGUUUAUUAUG [C14G A20U A22U A41C C43U C54A C79G U82G G92U A110U C125U C149U]	≤ -4.2
GGAUCUUCUCGAUGUAACAACAAAGACAAAUCUGCCACAAAGCUUGAGAGCGUCUUUGGAUGCAGAGGCGGCUGCCUUCGGUGGCGGGCUAGCGCCAACGUUCUCAACUAUGACAAGCAAAACGCGUGCUCCGUUGAAUGGAGUUUAUCAUG [C14G A21C A52G C57U A73U C87G A89C C116A]	≤ -4.2
